Article PMC4336329 (PLoS ONE, 2015)
In all, about 310,000 compounds went through this assay and about 2,200 (0.71%) showed an effect of 50% or more. Effects have a minus sign here. The list shows a part of the results.

The compounds below were run against human ether-à-go-go-related gene (hERG) potassium channel (human, UniProt Q12809) (assay: primary screen, population patch clamp on CHO cells stably expressing hERG).
Chain of human ether-à-go-go-related gene (hERG) potassium channel (Q12809 whole entry, looked up): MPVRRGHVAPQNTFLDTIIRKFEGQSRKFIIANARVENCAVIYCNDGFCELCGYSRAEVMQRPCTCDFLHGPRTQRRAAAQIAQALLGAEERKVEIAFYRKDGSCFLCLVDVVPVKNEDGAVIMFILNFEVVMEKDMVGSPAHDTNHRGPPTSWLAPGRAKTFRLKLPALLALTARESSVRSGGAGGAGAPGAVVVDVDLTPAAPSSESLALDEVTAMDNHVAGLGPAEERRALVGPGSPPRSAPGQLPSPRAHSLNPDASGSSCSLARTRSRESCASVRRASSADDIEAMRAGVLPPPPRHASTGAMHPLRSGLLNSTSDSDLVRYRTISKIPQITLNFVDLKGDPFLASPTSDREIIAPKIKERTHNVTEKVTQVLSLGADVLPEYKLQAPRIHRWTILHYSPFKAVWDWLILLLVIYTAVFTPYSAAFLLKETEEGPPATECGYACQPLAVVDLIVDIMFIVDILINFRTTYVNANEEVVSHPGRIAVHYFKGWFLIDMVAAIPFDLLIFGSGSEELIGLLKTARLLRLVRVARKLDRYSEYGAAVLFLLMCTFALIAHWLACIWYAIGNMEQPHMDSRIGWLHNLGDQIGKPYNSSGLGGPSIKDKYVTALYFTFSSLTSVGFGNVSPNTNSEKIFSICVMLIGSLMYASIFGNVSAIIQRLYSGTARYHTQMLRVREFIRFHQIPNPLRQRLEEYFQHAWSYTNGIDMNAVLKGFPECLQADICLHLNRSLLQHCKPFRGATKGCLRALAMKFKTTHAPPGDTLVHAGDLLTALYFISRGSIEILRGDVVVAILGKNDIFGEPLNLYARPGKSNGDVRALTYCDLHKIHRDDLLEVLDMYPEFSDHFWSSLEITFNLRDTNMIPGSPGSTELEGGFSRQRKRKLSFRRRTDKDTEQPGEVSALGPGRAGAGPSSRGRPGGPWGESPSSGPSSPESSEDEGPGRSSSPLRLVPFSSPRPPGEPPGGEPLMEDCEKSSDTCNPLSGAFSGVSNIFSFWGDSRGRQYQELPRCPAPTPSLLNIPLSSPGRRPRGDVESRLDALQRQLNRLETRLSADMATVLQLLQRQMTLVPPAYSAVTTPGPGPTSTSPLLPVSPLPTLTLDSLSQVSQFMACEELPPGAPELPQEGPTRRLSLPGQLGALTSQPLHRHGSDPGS

Point of comparison: `CCOc1ccc(OCCn2nnc3ccccc3c2=O)cc1`, “hERG current change (%, negative = inhibition) at 1uM” value 2.8%. Against it:
- CN1C(=O)C(=Cc2ccccc2Oc2ccc(Cl)cc2)C(=O)N(C)C1=O — higher, 8.1%
- CSc1ccc(S(=O)(=O)N2c3ccccc3CC2C)cc1 (centres unmarked) — higher, 8.27%
- CCSC1(SCC)N=C(N)C2(C#N)C(c3ccc(OC)c(OC)c3OC)C12C#N (centres unmarked) — lower, -2.36%
- CCN(CC)CCNC(=O)c1ccc2c(c1)ncn2C1CCCCC1 — higher, 8.87%
- CCn1c(SCC(=O)Nc2ccc(N3CCOCC3)c(Cl)c2)nnc1-c1ccc(N)cc1 — higher, 12.3%
- CC1Cc2ccccc2N1CC(=O)Nc1ccc(N2CCOCC2)cc1 (centres unmarked) — lower, -7.17%
- Cc1ccc(OCC(=O)Nc2cc(S(=O)(=O)N3CCOCC3)ccc2Cl)c([N+](=O)[O-])n1 — higher, 3.61%
- COc1cc(NC(=O)Nc2ccccc2)c(OC)cc1NC(=O)CN1CCCCC1 — lower, -13.9%
- c1ccc(-c2nnc3sc(Cc4cccs4)nn23)cc1 — higher, 7.81%
- CCCCN(CCCC)S(=O)(=O)c1ccc(SCC(=O)OCC)c([N+](=O)[O-])c1 — higher, 11.7%
- Cc1ccc(C(=O)C2CCN(S(=O)(=O)c3c(C)noc3C)CC2)cc1 — lower, 1.23%
- CC(=O)c1c(C)c[nH]c1C — higher, 14.9%
- O=C(COc1ccc(F)cc1Cl)Nc1cc(S(=O)(=O)N2CCOCC2)ccc1N1CCCCC1 — lower, -1.68%
- COC(=O)Cc1cc(=O)n(-c2ccccc2)[nH]1 — higher, 3.67%
- COc1ccccc1CN1CCNC(=O)C1CC(=O)O (centres unmarked) — higher, 9.48%
- CCCCOc1ccc(S(=O)(=O)NNC(=O)C2Cc3c(ccc4ccccc34)O2)cc1 (centres unmarked) — higher, 17%
- CCOc1ccc(C(=O)OCC(=O)Nc2ccc(SC(F)F)cc2)cc1OCC — lower, -8.45%
- CCn1c(=N)n(CCO)c2ccccc21.Cl — higher, 8.18%
- CCc1nc2ccc(C(=O)N(C)CC(=O)Nc3cccc(F)c3)cc2nc1CC — lower, 1.52%
- Cc1ccc(-c2nnn(CC(=O)NCC3CC3)n2)o1 — higher, 13.2%
- Cc1nc(Cl)sc1C(=O)Nc1ccc2ccccc2c1 — higher, 13.8%
- COc1ccc(-c2cc(=O)oc3cc(OCC(=O)NCc4ccccn4)ccc23)cc1 — higher, 8.12%
- CCS(=O)(=O)N1CCN(C(=O)c2cccnc2)CC1 — lower, 1.01%
- CN(c1nc2ccccc2[nH]c1=O)C1CCCCC1 — higher, 4.11%
- O=C(Nc1ccc([N+](=O)[O-])cc1)c1cccc(S(=O)(=O)Nc2cccnc2)c1 — higher, 12%
